According to US20250289861A1 (IMMUNOFORGE, published 2025):

How the values were obtained:
[1] = molecular target: IGF-1R on HEK 293 IGF-1R cells (PathHunter HEK293 IGF-1R bioassay kit); assay: cell-based or functional assay
[2] = molecular target: GLP1R on CHO-K1 GLP1R cells (cAMP Hunter Liraglutide bioassay kit); assay: cell-based or functional assay

- EC50 (nM), IGF-1R phosphorylation assay (PathHunter HEK293 IGF-1R bioassay kit) [1]: 13.9 nM
- EC50 (pM), cAMP assay on CHO-K1 GLP1R cells (cAMP Hunter Liraglutide bioassay kit) [2]: 20 pM
B1: PF1802_M008 (GLP1-Fc-mut.IGF1) (Fc fusion)
chain: HGEGTFTSDVSSYLEEQAAKEFIAWLVKGGGGSAPAPGGGGS[letters of human IgG1 Fc with changes left out]GGGGSGGGGSGGGGSGGGGSGAHSGPATLCGAELVDALQFVCGDRGFYFNKPTGYGSSSRRAPQTGIVDECCARSCDLRRLEMYCAPLKPTKST

- EC50 (nM), IGF-1R phosphorylation assay (PathHunter HEK293 IGF-1R bioassay kit) [1]: 9.91 nM
- EC50 (pM), cAMP assay on CHO-K1 GLP1R cells (cAMP Hunter Liraglutide bioassay kit) [2]: 6 pM
B2: PF1802_M010 (GLP1-Fc-mut.IGF1-TfR) (Fc fusion)
chain: HGEGTFTSDVSSYLEEQAAKEFIAWLVKGGGGSAPAPGGGGS[letters of human IgG1 Fc with changes left out]GGGGSGGGGSGGGGSGGGGSGAHSGPATLCGAELVDALQFVCGDRGFYFNKPTGYGSSSRRAPQTGIVDECCARSCDLRRLEMYCAPLKPTKSTGSAPAPGGGGSTHRPPMWSPVWP

- EC50 (nM), IGF-1R phosphorylation assay (PathHunter HEK293 IGF-1R bioassay kit) [1]: > 2000 nM
- EC50 (pM), cAMP assay on CHO-K1 GLP1R cells (cAMP Hunter Liraglutide bioassay kit) [2]: 11 pM
B3: PF1802_M011 (GLP1-Fc) (Fc fusion)
chain: HGEGTFTSDVSSYLEEQAAKEFIAWLVKGGGGSAPAPGGGGS[letters of human IgG1 Fc with changes left out]

One block for each binder: values may come before it.
